By IC50 is meant the dose at which the fit gives 50% viability; a fit beyond the top or the lowest dose is shown as a bound at that dose. AUC, from the same fit, is the share of area under the viability curve across the 256-fold dose range; the more sensitive the line, the further below 1. A top dose marked as inferred was calculated from the reported fits. For part of these data: Drugs with an entry number were screened twice under separate entries, and the two screens often disagree. A value given as a limit tells only on which side of the number the result lay.

Compound in the first experiment: CNC(=O)c1ccc(Nc2cc(Nc3ccccc3S(=O)(=O)C(C)C)c3cc[nH]c3n2)nc1 [HG-5-113-01]
The experiment is described as follows: Viability of human cancer cell lines after 72 h of drug (GDSC screen). Particulars: top dose 10 µM; top dose inferred. The protocol:
(§1)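 Human cancer cell lines in 384-well plates, medium with 10% serum, drug for 72 h over a 256-fold dose range (nine 2-fold or five 4-fold steps up to the top dose). Adherent lines were fixed and stained with the nucleic acid dye Syto60, suspension lines read with resazurin; signal relative to control wells, capped at 0 and 100%. One two-parameter sigmoid per drug and line, fitted in a mixed model over all curves with the slope shared within a line.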
One may read the IC50 as the concentration at which inhibition is half-maximal. In the case of WIL2-NS (lymphoid neoplasm, suspension), the AUC was determined as 0.835 and the IC50 turned out to be 4.94 µM.
WSU-DLCL2 (B-cell lymphoma, suspension): the AUC came to 0.96 and the IC50 is over 10 µM.
Take no-11 (glioma, adherent): the AUC turned out to be 0.914 and the half-inhibitory concentration (IC50) was over 10 µM.

Compound in the next experiment: O=C(c1cc(Cc2n[nH]c(=O)c3ccccc23)ccc1F)N1CCN(C(=O)C2CC2)CC1 [Olaparib]
The experiment is described as above. Particulars: top dose 5 µM; screen: GDSC drug entry 1017; top dose inferred. On the procedure: as §1
As for TUR (B-cell lymphoma, suspension), the AUC is 0.979 and the half-maximal inhibitory concentration (IC50) is over 5 µM.
In the case of VA-ES-BJ (soft tissue, adherent), the AUC is 0.889 and the IC50 is over 5 µM.
As to VCaP (prostate, adherent), the AUC was found to be 0.987 and the IC50 is over 5 µM.
Regarding WIL2-NS (lymphoid neoplasm, suspension), the AUC is 0.975 and the IC50 was over 5 µM.
For WSU-DLCL2 (B-cell lymphoma, suspension) the same measures were 0.986 and over 5 µM.
On to no-11 (glioma, adherent), for which the AUC came to 0.961 and the IC50 was over 5 µM.

The same experiment, now with this note: top dose 10 µM; screen: GDSC drug entry 1495.
With TUR (B-cell lymphoma, suspension), the AUC turned out to be 0.972 and the IC50 was over 10 µM.
Turning to VA-ES-BJ (soft tissue, adherent), the AUC came to 0.976 and the IC50 was over 10 µM.
For VCaP (prostate, adherent) the same measures were 0.979 and over 10 µM.
WIL2-NS (lymphoid neoplasm, suspension): the AUC came out at 0.951 and the IC50 is over 10 µM.
For WSU-DLCL2 (B-cell lymphoma, suspension) the same measures were 0.912 and over 10 µM.
For no-11 (glioma, adherent) the same measures were 0.979 and over 10 µM.

Compound in another experiment: Cc1cc(N2CCOCC2)cc2[nH]c(-c3c(NC[C@@H](O)c4cccc(Cl)c4)cc[nH]c3=O)nc12 [BMS-536924]
The description is as above. Particulars: top dose 4 µM; screen: GDSC drug entry 1091; top dose inferred. The protocol: as §1
For the cell line TUR (B-cell lymphoma, suspension), the AUC is 0.905 and the IC50 is over 4 µM.
Regarding VA-ES-BJ (soft tissue, adherent), the AUC worked out at 0.984 and the IC50 was over 4 µM.
Take VCaP (prostate, adherent): the AUC turned out to be 0.846 and the IC50 amounted to 3.09 µM.
For WIL2-NS (lymphoid neoplasm, suspension) the same measures were 0.962 and over 4 µM.
On to WSU-DLCL2 (B-cell lymphoma, suspension), for which the AUC is 0.712 and the IC50 was 0.876 µM.
For the cell line no-11 (glioma, adherent), the AUC was 0.978 and the half-inhibitory concentration (IC50) was over 4 µM.

The same experiment, now with this note: top dose 5.12 µM; screen: GDSC drug entry 62.
TUR (B-cell lymphoma, suspension): the AUC was determined as 0.986 and the IC50 was over 5.12 µM.
VA-ES-BJ (soft tissue, adherent): the AUC is 0.932 and the IC50 is over 5.12 µM.
For VCaP (prostate, adherent) the same measures were 0.465 and 0.256 µM.
In the case of WIL2-NS (lymphoid neoplasm, suspension), the AUC was 0.895 and the concentration for half-maximal inhibition (IC50) was determined as 4.17 µM.
For WSU-DLCL2 (B-cell lymphoma, suspension), the AUC was found to be 0.992 and the IC50 is over 5.12 µM.
As for no-11 (glioma, adherent), the AUC turned out to be 0.893 and the 50% inhibitory concentration (IC50) is over 5.12 µM.

Compound in another experiment: Cc1ccc(-n2nc(C(C)(C)C)cc2NC(=O)Nc2ccc(OCCN3CCOCC3)c3ccccc23)cc1 [BIRB 0796]
The experiment is described as above. Particulars: top dose 10 µM; top dose inferred. The protocol:
as §1
As for TUR (B-cell lymphoma, suspension), the AUC is 0.988 and the IC50 is over 10 µM.
Consider VA-ES-BJ (soft tissue, adherent), for which the AUC was 0.98 and the IC50 is over 10 µM.
For VCaP (prostate, adherent) the same measures were 0.976 and over 10 µM.
Regarding WIL2-NS (lymphoid neoplasm, suspension), the AUC is 0.992 and the IC50 was over 10 µM.
As for WSU-DLCL2 (B-cell lymphoma, suspension), the AUC came to 0.99 and the IC50 is over 10 µM.
On to no-11 (glioma, adherent), for which the AUC turned out to be 0.971 and the half-maximal inhibitory concentration (IC50) is over 10 µM.

Compound in the next experiment: NC(=O)c1ccc(N(C(N)=O)c2c(F)cccc2F)nc1-c1ccc(F)cc1F [VX-702]
The description is as above. Particulars: top dose 2 µM; top dose inferred. The protocol:
as §1
On to TUR (B-cell lymphoma, suspension), for which the AUC came to 0.966 and the IC50 is over 2 µM.
Consider VA-ES-BJ (soft tissue, adherent), for which the AUC was found to be 0.968 and the IC50 is over 2 µM.
In the case of VCaP (prostate, adherent), the AUC was 0.987 and the IC50 is over 2 µM.
For WIL2-NS (lymphoid neoplasm, suspension) the same measures were 0.974 and over 2 µM.
For WSU-DLCL2 (B-cell lymphoma, suspension) the same measures were 0.986 and over 2 µM.
On to no-11 (glioma, adherent), for which the AUC was 0.977 and the IC50 is over 2 µM.

Values taken from the supplement of paper PMC4967469.
